# Results from the RNAGym collection of RNA variant scans (doi:10.7554/elife.90254).
# Read counts are not given, so values of variants with three or more changes are uncertain.
# B1: LINE1-mini (parent)
# chain: GGCAGAGCUCAACACAGCGUGGCAAAGUGGCUGUGGCUAGACUGCC
# Variants of: B1
# Assay: self-cleavage, relative activity (ratio to wild type); higher = more cleavage; in vitro, sequencing; the parent is a self-cleaving ribozyme
row,Variant,self-cleavage
1,C8G A16G U43C C45A,0.05
2,C8G C10A C42U C46A,0.03
3,C8G A24U G27U,0.22
4,C8G C10A C18A G29C,0.01
5,G7U U32C C37U,0.03
6,C8G G22U G29C,0.04
7,C8G A16G C31G,0.02
8,C8A G21A G22U C23G G30U C31G,0.01
9,C8A U38C G40U,0.42
10,C8A G17C C18A G19A A24U A26U G29A C31A,0
11,C8A A14U A16G U20G A24G,0.13
12,C8G C18A U38G C42U,0.08
13,C8G G21U G27U,0.03
14,C8G G17U C46U,0.03
15,C8A G27A C31A U32A G44A,0.33
16,C8A U28A G35C C37U,0.05
17,C8G A11C G35U A39C,0.02
18,C8A A12U U20C,0.1
19,C8A C13A G21A,0.95
20,C8G C13A C23G C46G,0.03
21,C8A C15U A24U,0.43
22,C8G A26U C45A C46U,0.02
23,C8A G30A C37G,0.1
24,C8G C37A G40U,0.2

row,Variant,self-cleavage
1,C8A C10A A11G A14G,0.01
2,C8A C15A U32C G35A,0.05
3,C8G A11U A14U G19U A39C,0
4,C8G C18U C31G,0.01
5,C8G C10G G44U,0.02
6,C8G G17U A25U,0.03
7,C8A U20G C31A U32A A41C,0.08
8,C8G A16C G29C,0.14
9,C8G C15A G17A G21A G36U,0.17
10,C8G G21U G44C C45U,0.08
11,C8G A26C G27A,0.16
12,C8G C18G C23U G27U,0.06
13,C8A G36A U43A,0.47
14,C8A G22A G35U C46G,0.32
15,C8A U20C G36A A41G C42A,0.06
16,C8G C15A C31G,0
17,C8A G27C G29A C37U,0.11
18,C8A G22U A24U A41C,0.11
19,C8A U20A G30U,0.1
20,C8A C10A A12C G33A U34A G36U,0
21,C8A C18U U28C C31A,0.09
22,G7U U28C U32G,0.03
23,C8A U20G G29U C37U C45G,0.11
24,C8A G30C C31G U32G,0.07

row,Variant,self-cleavage
1,C8G A16G G21A U43C,0.01
2,C8G A16C A25G G27C U34G,0.01
3,C8G C15U G29U C31A C46G,0.17
4,C8A C10G G21C U28C,0.01
5,C8A A41C G44U C46U,0.18
6,C8G A25C U43C,0.02
7,C8A G21A C23U,0.12
8,C8A C13U G35C,0.26
9,C8G G21U G36U,0.07
10,C8G C10U G17U C23U G35U G44C,0.03
11,C8G C15U A16U G30C C31G C37U,0.05
12,C8A U9C C23U,0.04
13,G7U U20A U28A A39G,0.02
14,C8A C23A A26C,0.16
15,C8A A14G U20G,0.05
16,C8A C23A U32A,0.09
17,C8A C10G G22U G30C,0.01
18,C8A C10A C13U A25C A39U U43C,0.03
19,C8A C23A G36C,0.14
20,C8G G17U C18G A26G G33U,0.1
21,C8A C31U U32A A41G,0.17
22,C8A C13G A24C C31A,0.2
23,C8A A11G A14G G40A U43G,0.01
24,G7U U9G G44U,0.05

row,Variant,self-cleavage
1,C8A C10A U38C A39C,0.02
2,C8A U20G G33C A41C,0.04
3,C8A A24U G36C G40U G44C,0.13
4,C8A C10G U43A C46G,0.05
5,C8A C15G A41G C46G,0.23
6,C8A A26C C46U,0.05
7,C8A C18G C31G,0.09
8,G7U U34A C37U,0.02
9,C8G A24C G27U U43A,0.02
10,C8A A11U A14G C15A G22U C37U,0.03
11,C8G C13A A16U G33A,0.06
12,C8G A12G C13A C15U C18G G19A A25G C42A,0.01
13,C8G A12G C31A,0.21
14,C8A C10A C31U U32G G36A,0.02
15,C8A C10U A11C C13A G35A C37A C42U,0.01
16,C8G C23A G27C G40U,0.06
17,C8G C10U C13U A16U G22A,0.03
18,C8A A26U U28C,0.17
19,C8A A14G G21A C42U,0.18
20,C8A C10G A26U,0.02
21,C8A C10U G35U,0.06
22,C8A G27A G30C C31A U43A,0.18
23,C8A C10G G29C A39G G44A,0.02
24,C8A C10G C37G,0.01

row,Variant,self-cleavage
1,C8G A26U C31U,0.06
2,C8A G21U C37G,0.07
3,C8A C15U C45A,0.21
4,C8A C15U G30C,0.05
5,C8A U9C A26C G29C G36U,0.03
6,C8A A39G G40U C46A,0.05
7,C8A A12C C23U U43A,0.02
8,C8A C10U A16U G22U,0.14
9,C8G A14G G17C G30A,0.09
10,C8G G21C U32C,0.04
11,C8G A11G U28G,0
12,C8A A12G G30A G40U,0.03
13,C8A A24U C31U U32C U38G,0.11
14,C8G C18U G22C G36U,0.04
15,C8G A14C G33C G44C,0.02
16,C8A C15U U28A,0.1
17,C8A C10A C15U G21U G44U,0
18,C8A A11U G36A C45G,0.01
19,C8A A26G G29C G30U A41C,0.02
20,C8A A12U U28C U38A,0.59
21,C8A G30A A41C,0.12
22,C8A C13U G22U,0.45
23,C8G G27A C31U U32G G33U,0.01
24,C8A G27U U28A,0.7

row,Variant,self-cleavage
1,C8A C10G G29C C46U,0
2,C8G A11C C15G,0.02
3,C8G C10A G33C,0.06
4,C8A A14C G22U G36C,0.21
5,C8A G19C G30C,0.26
6,C8A A12C G19A G29U,0.01
7,C8A C31A A41C,0.1
8,C8A U9A A41C,0.07
9,C8G A26U G27C U28C C31G,0.01
10,C8G A11U C15A C23G,0
11,C8A U9A A12G A16U G22C,0.01
12,C8A U9A C23A U38G,0.03
13,C8A G21U U34C,0.13
14,C8G A11U A16C G19U A41U,0.01
15,C8A C18U G27C,0.07
16,G7U U20G C31U,0.04
17,G7U U20A C42A,0.06
18,C8A G30C A39U,0.57
19,C8G G19C G21C G27U C37A,0.02
20,C8A A26U G30U,0.35
21,C8G C10G C13G C37G,0.02
22,C8A G17A G30U U43C,0.39
23,C8G A11C G22A,0.01
24,C8A A14C G21A C45U,0.02

row,Variant,self-cleavage
1,C8A A16C C31G U34C C45U,0.02
2,C8A C15G U32A,0.04
3,C8A C10A C18U C31G,0.03
4,C8A C13A A16U C23U A26U G35U,0.06
5,C8A G22C G33A,0.15
6,C8G C13A G29U,0.05
7,C8G A11U C13G G17A,0.01
8,C8A G29U G35U,0.02
9,C8A U20G A26U C42G,0.15
10,C8A G17U G21A G40A,0.3
11,C8A A25G G27U G29U,0.34
12,C8G C13G G21C,0.04
13,C8G C13U U28A,0.14
14,C8A C15U G17A G35A,0.17
15,C8G A24G U28G U43G C45A,0.07
16,C8G A12U A26G C46U,0.03
17,C8A A26G U43G,0.03
18,C8A G17A A26C C46U,0.11
19,C8A C13A C15A G19U G27C A41G,0.02
20,C8A A14U A16C G27A,0.31
21,C8G A14G C15G C18A G27A G29U G35C G44C,0.18
22,C8G C23U U28C,0.25
23,C8A A12C U28A,0.04
